In the supplement of paper PMC12217912:
Some of the results follow. The full chains were built here from the parent and the listed change. Inactive controls read about 0.05.

B1: TEV protease; numbered along this chain (parent)
chain: MGESLFKGPRDYNPISSSICHLTNESDGHTTSLYGIGFGPFIITNKHLFRRNNGTLVVQSLHGVFKVKDTTTLQQHLVDGRDMIIIRMPKDFPPFPQKLKFREPQREERICLVTTNFQTKSMSSMVSDTSCTFPSGDGIFWKHWIQTKDGQCGSPLVSTRDGFIVGIHSASNFTNTNNYFTSVPKNFMELLTNQEAQQWVSGWRLNADSVLWGGHKVFMVKPEEPFQPVKEATQL

Variants of: B1
Assay: raw area under fraction-flipped curve 0-4 h after induction (AUC4h, not background-subtracted), DNA-recorder readout of cleavage of the substrate (dimensionless); higher = more cleavage of the substrate by the protease variant
Details: temperature: 34 °C; time window: 0-4 h after rhamnose induction
Procedure: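 In vivo DNA recorder in E. coli TOP10(DE3) ΔrhaA at 34 °C. Each TEVp single-site mutant (parent TEVp 0) is paired with a single-site variant of the 7-mer TEVs (canonical ENLYFQ|S). The substrate sits between flexible linkers in a Bxb1-sfGFP-TEVs-SsrA fusion, so cleavage stabilises Bxb1 and speeds flipping of a recombination array, read by NGS. The value is the raw area under the fraction-flipped curve over 0-4 h after rhamnose induction (AUC4h), with ≥20 reads per time point. It is not background-subtracted; inactive controls average about 0.047.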
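Also: Bxb1 expression induced with 0.2% (w/v) L-rhamnose at OD600 near 0.5, cultures sampled hourly, flipped fraction per protease–substrate barcode pair counted by paired-end Illumina sequencing.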

Variant	area with substrate ANLYFQS	area with substrate CNLYFQS	area with substrate DNLYFQS	area with substrate HNLYFQS	area with substrate INLYFQS	area with substrate LNLYFQS	area with substrate MNLYFQS	area with substrate PNLYFQS	area with substrate QNLYFQS	area with substrate RNLYFQS	area with substrate SNLYFQS	area with substrate TNLYFQS	area with substrate WNLYFQS	area with substrate VNLYFQS	area with substrate FNLYFQS	area with substrate GNLYFQS	area with substrate KNLYFQS	area with substrate NNLYFQS	area with substrate YNLYFQS
P222S	0.0587	0.052	0.0489	0.0667	0.0473	0.0693	0.0661	0.0698	0.0648	0.0596	0.0583	0.057	0.0573						
M219C	0.0614	0.0598	0.0778		0.0493			0.059			0.0616		0.0637	0.0567					
M219V	0.0593	0.0606	0.0787	0.0716	0.047	0.0343	0.0572	0.066		0.0477	0.085	0.0626	0.0528		0.0708	0.073	0.0667	0.0661	0.0593
M219E	0.0597	0.0591	0.0471	0.061	0.0667	0.0615		0.0613			0.057	0.0621	0.0527		0.0783	0.0517	0.0616	0.0627	0.0381
K221Q	0.0538	0.0572	0.0625	0.0692		0.057	0.0704				0.0614	0.0602	0.057	0.0508	0.064	0.0746	0.0892	0.0642	0.0411
K221I	0.0306	0.0567	0.0796	0.0531		0.0339	0.0623	0.0655		0.0583		0.0789	0.0618	0.0636	0.0622	0.0454	0.0652		0.0464
E223T	0.0581	0.0735	0.08	0.0697	0.069	0.0575	0.0641	0.0766	0.0688		0.0718	0.0394	0.0666	0.0704		0.046	0.061	0.0595	0.051
Q234K	0.0742	0.0537	0.0641	0.0637	0.0644	0.0652	0.0785	0.0683	0.107	0.0562	0.0765	0.0694	0.0575		0.0571	0.0648		0.073	0.0516
Q234I	0.0568	0.0665	0.0909	0.0698								0.0639	0.0545				0.049		0.0676
P225I	0.0624	0.0561	0.0577	0.0596	0.0455	0.0532		0.0693			0.0645	0.0658		0.0514		0.056	0.0515		0.0464
P225F	0.0652	0.0674	0.0613			0.0703		0.0655	0.0088			0.0337	0.0593				0.0676	0.0551	0.0572
F226W	0.0712	0.078	0.0832	0.0696	0.0601	0.0591		0.0362	0.0632		0.0857	0.0676	0.0611	0.0598		0.061	0.0495		0.0615
E231T	0.0796	0.0713	0.0814	0.0682		0.0749		0.0667				0.07	0.0475	0.0734		0.0618	0.0693	0.0708	
E231H	0.0567	0.0911	0.07	0.0573		0.077	0.0538	0.0734	0.0553		0.078	0.057	0.0623						
F218P	0.0586	0.0381	0.0641	0.0725	0.0579	0.0512	0.0578				0.0652	0.054	0.0538			0.0582	0.0617	0.0594	0.0433
L205W	0.0458	0.0454	0.0632	0.0647	0.0572	0.0443		0.0504			0.057	0.0475	0.0514			0.0605	0.0557		0.0575
A196L	0.109	0.069	0.0761	0.0745	0.0442	0.0722	0.0769	0.0753				0.0661	0.058		0.0493	0.04	0.076	0.0604	0.0682
Q227I	0.0756	0.0587	0.0769	0.0735	0.093		0.0564						0.0811	0.0592	0.0669		0.0597	0.0691	
G213F	0.0483	0.0587	0.0509		0.0453	0.0422	0.0688	0.0599			0.0496	0.0484	0.0514		0.0807		0.0617		0.0568
Q198I	0.0629	0.0756	0.0788	0.077	0.0791	0.0733	0.0713	0.0564		0.0536	0.0515	0.0434	0.0596		0.0517	0.0595		0.059	0.0699
K230M	0.0684	0.0632	0.0648	0.0674		0.0651	0.0682	0.0682			0.0588	0.0771	0.0584		0.0477		0.0478	0.0613	
K230E	0.0455	0.0628	0.0798	0.0669	0.0627		0.0646						0.0606	0.0713	0.0598	0.0692	0.0669		0.0583
K230V	0.0618	0.0874	0.0799	0.0536		0.0717			0.0693		0.056		0.058		0.0707	0.0674	0.0643	0.0708	0.0595
